Assay results taken from patent publication US10358436B2, “Kinase inhibitors and method of treating cancer” (University Health Network, priority 2010, dated 2019).
Where a name gives a salt, the structure may show the parent alone. Read-outs that look alike come from different tables or passages of the source.

Experiments:
Experiment in all cases: cells
[1] = test system: MCF-7 luminal breast cancer cell line; conditions: Homo sapiens, MCF7, 120 h
[2] = test system: HCC1954 basal breast cancer cell line; conditions: Homo sapiens, HCC1954, 120 h
[3] = test system: SW620 colon cancer cell line; conditions: Homo sapiens, SW-620, 120 h, read-out: Cell Line GI50 Range SW-620
[4] = test system: A549 lung cancer cell line; conditions: Homo sapiens, A549, 120 h, read-out: Cell Line GI50 Range A-549
[5] = test system: MDA-MB-468 basal breast cancer cell line; conditions: Homo sapiens, MDA-MB-468, 120 h
[6] = read-out: Cell Line GI50 Range MCF-7, MCF-7 luminal breast cancer cell line, SRB assay, 5 days
[7] = read-out: Cell Line GI50 Range HCC-1954, HCC1954 basal breast cancer cell line, SRB assay, 5 days
[8] = read-out: Cell Line GI50 Range MDA-MB-468
[9] = read-out: Cell Line GI50 Range MCF-7
[10] = read-out: Cell Line GI50 Range MDA-MB-468, MDA-MB-468 basal breast cancer cell line, SRB assay, 5 days
[11] = read-out: Cell Line GI50 Range HCC-1954

| SMILES | GI50 [1, 6] [nM] | GI50 [2, 7] [nM] | GI50 [3] [nM] | GI50 [4] [nM] | GI50 [5, 8] [nM] | GI50 [1, 9] [nM] | GI50 [2, 11] [nM] | GI50 [5, 10] [nM] |
| --- | --- | --- | --- | --- | --- | --- | --- | --- |
| CN1CCN(c2ccc(-c3n[nH]c4cc([C@@H]5C[C@@]56C(=O)Nc5ccc(F)cc56)ccc34)cn2)CC1 (relative stereo) [Example A210, 1R*,2S*1-5′-fluoro-2-(3-(6-(4-methylpiperazine-1-yl)pyridine-3-yl)-1H-indazol-6-yl)-spiro[cyclopropane-1,3′-indolin]-2′-one] |  | 1000 to 10000 | 100 to 1000 | 100 to 1000 |  | 100 to 1000 |  | 100 to 1000 |
| COc1ccc2c(c1)[C@]1(C[C@H]1c1ccc3c(I)n[nH]c3c1)C(=O)N2 [Example A7, (1R,2S)-2-(3-iodo-1H-indazol-6-yl)-5′-methoxyspiro[cyclopropane-1,3′-indolin]-2′-one] |  |  | 100 to 1000 | 100 to 1000 | 100 to 1000 | 100 to 1000 | 100 to 1000 |  |
| COc1ccc2c(c1)[C@@]1(C[C@@H]1c1ccc3c(-c4ccc(N5CCN(C)CC5)nc4)n[nH]c3c1)C(=O)N2 [Example A15, (1S,2R)-5′-methoxy-2-(3-(6-(4-methylpiperazin-1-yl)pyridin-3-yl)-1H-indazol-6-yl)spiro[cyclopropane-1,3′-indolin]-2′-one] |  | 1000 to 10000 | 1000 to 10000 | 1000 to 10000 |  | 1000 to 10000 |  | 1000 to 10000 |
| COc1ccc2c(c1)[C@]1(C[C@H]1c1ccc3c(-c4ccc(OCCN5CCOCC5)cc4)n[nH]c3c1)C(=O)N2 [Example A68, (1R,2S)-5′-methoxy-2-(3-(4-(2-morpholinoethoxy)phenyl)-1H-indazol-6-yl)spiro[cyclopropane-1,3′-indolin]-2′-one 2,2,2-trifluoroacetate salt] |  |  | < 100 | < 100 | < 100 | < 100 | < 100 |  |
| COc1ccc2c(c1)[C@]1(C[C@H]1c1ccc3c(-c4ccc5c(c4)CN(C)CC5)n[nH]c3c1)C(=O)N2 [Example A70, (1R,2S)-5′-methoxy-2-(3-(2-methyl-1,2,3,4-tetrahydroisoquinolin-7-yl)-1H-indazol-6-yl)spiro[cyclopropane-1,3′-indolin]-2′-one 2,2,2-trifluoroacetate salt] |  |  | 1000 to 10000 | 100 to 1000 | 100 to 1000 | 1000 to 10000 | 1000 to 10000 |  |
| COc1ccc2c(c1)[C@]1(C[C@H]1c1ccc3c(/C=C/c4ccc(CN5CCCOCC5)cc4)n[nH]c3c1)C(=O)N2 [Example A73, (1R,2S)-(E)-2-(3-(4-((1,4-oxazepan-4-yl)methyl)styryl)-1H-indazol-6-yl)-5′-methoxyspiro[cyclopropane-1,3′-indolin]-2′-one 2,2,2-trifluoroacetate salt] |  |  | < 100 | < 100 | < 100 | 1000 to 10000 | 1000 to 10000 |  |
| CN1CCc2cc(/C=C/c3n[nH]c4cc([C@@H]5C[C@@]56C(=O)Nc5ccccc56)ccc34)ccc2C1 [Example A74, (1R,2S)-2-(3-((E)-2-(2-methyl-1,2,3,4-tetrahydroisoquinolin-6-yl)vinyl)-1H-indazol-6-yl)spiro[cyclopropane-1,3′-indolin]-2′-one 2,2,2-trifluoroacetate salt] |  |  | < 100 | < 100 | < 100 | 1000 to 10000 | 1000 to 10000 |  |
| O=C1Nc2ccccc2[C@]12C[C@H]2c1ccc2c(/C=C/c3csc(CN4CCOCC4)n3)n[nH]c2c1 [Example A77, (1R,2S)-2-(3-((E)-2-(2-(morpholinomethyl)thiazol-4-yl)vinyl)-1H-indazol-6-yl)spiro[cyclopropane-1,3′-indolin]-2′-one 2,2,2-trifluoroacetate salt] |  |  | 100 to 1000 | 100 to 1000 | 100 to 1000 | 1000 to 10000 | 1000 to 10000 |  |
| COc1ccc2c(c1)[C@]1(C[C@H]1c1ccc3c(/C=C/c4ccc(CN5CCOCC5)cc4)n[nH]c3c1)C(=O)N2C [Example A102, (1R,2S)-(E)-5′-methoxy-1′-methyl-2-(3-(4-(morpholinomethyl)styryl)-1H-indazol-6-yl)spiro[cyclopropane-1,3′-indolin]-2′-one hydrochloride] |  |  | 100 to 1000 | < 100 | < 100 | 1000 to 10000 | > 10000 |  |
| CN1CCN(c2ccc(/C=C/c3n[nH]c4cc([C@@H]5C[C@@]56C(=O)N(C)c5ccccc56)ccc34)cn2)CC1 [Example A110, (1R,2S)-1′-methyl-2-(3-((E)-2-(6-(4-methylpiperazin-1-yl)pyridin-3-yl)vinyl)-1H-indazol-6-yl)spiro[cyclopropane-1,3′-indolin]-2′-one bis(2,2,2-trifluoroacetate)] |  |  | < 100 | < 100 | < 100 | < 100 | < 100 |  |
| COc1ccc2c(c1)[C@]1(C[C@H]1c1ccc3c(-c4ccc(N5C[C@@H](C)N[C@@H](C)C5)cc4)n[nH]c3c1)C(=O)N2 [Example A126, (1R,2S)-2-(3-(4-(cis-3,5-dimethylpiperazin-1-yl)phenyl)-1H-indazol-6-yl)-5′-methoxyspiro[cyclopropane-1,3′-indolin]-2′-one 2,2,2-trifluoroacetate] |  | 1000 to 10000 | < 100 | < 100 |  | < 100 |  | < 100 |

Continued, in another order:

| GI50 [1, 6] [nM] | GI50 [2, 7] [nM] | GI50 [3] [nM] | GI50 [4] [nM] | GI50 [5, 8] [nM] | GI50 [1, 9] [nM] | GI50 [2, 11] [nM] | SMILES | GI50 [5, 10] [nM] |
| --- | --- | --- | --- | --- | --- | --- | --- | --- |
| 100 to 1000 | 1000 to 10000 | < 100 | < 100 | 100 to 1000 |  |  | O=C1Nc2ccc(F)cc2[C@]12C[C@H]2c1ccc2c(/C=C/c3ccc(N4CCOCC4)nc3)n[nH]c2c1 (relative stereo) [Example A207, (1R*,2S*)-5′-fluoro-2-(3-((E)-2-(6-morpholinopyridin-3-yl)vinyl)-1H-indazol-6-yl)spiro[cyclopropane-1,3′-indolin]-2′-one 2,2,2-trifluoroacetate] |  |
|  |  | 1000 to 10000 | 1000 to 10000 | 100 to 1000 | 1000 to 10000 | > 10000 | COc1ccc2c(c1)[C@]1(C[C@H]1c1ccc3c(-c4ccc5nccn5c4)n[nH]c3c1)C(=O)N2 [Example A107, (1R,2S)-2-(3-(imidazo[1,2-a]pyridin-6-yl)-1H-indazol-6-yl)-5′-methoxyspiro[cyclopropane-1,3′-indolin]-2′-one 2,2,2-trifluoroacetate] |  |
|  |  | 1000 to 10000 | 100 to 1000 | 100 to 1000 | 100 to 1000 | 1000 to 10000 | COc1ccc2c(c1)[C@]1(C[C@H]1c1ccc3c(-c4ccc(OCCn5ccnc5)cc4)n[nH]c3c1)C(=O)N2 [Example A108, (1R,2S)-2-(3-(4-(2-(1H-imidazol-1-yl)ethoxy)phenyl)-1H-indazol-6-yl)-5′-methoxyspiro[cyclopropane-1,3′-indolin]-2′-one 2,2,2-trifluoroacetate] |  |
| < 100 | 1000 to 10000 | < 100 | < 100 | < 100 |  |  | COc1ccc2c(c1)[C@]1(C[C@H]1c1ccc3c(-c4ccc(N(C)CCN(C)C)cc4)n[nH]c3c1)C(=O)N2 [Example A129, (1R,2S)-2-(3-(4-((2-(dimethylamino)ethyl)(methyl)amino)phenyl)-1H-indazol-6-yl)-5′-methoxyspiro[cyclopropane-1,3′-indolin]-2′-one 2,2,2-trifluoroacetate] |  |
| 100 to 1000 | > 10000 | 100 to 1000 | 100 to 1000 | 100 to 1000 |  |  | Cc1ccc(/C=C/c2n[nH]c3cc([C@@H]4C[C@@]45C(=O)Nc4ccccc45)ccc23)cn1 [Example A150, (1R,2S)-2-(3-((E)-2-(6-methylpyridin-3-yl)vinyl)-1H-indazol-6-yl)spiro[cyclopropane-1,3′-indolin]-2′-one] |  |
| < 100 | < 100 | < 100 | < 100 | < 100 |  |  | COc1ccc2c(c1)[C@]1(C[C@H]1c1ccc3c(/C=C/c4ccc(CCN5CCOCC5)cc4)n[nH]c3c1)C(=O)N2 [Example A177, (1R,2S)-(E)-5′-methoxy-2-(3-(4-(2-morpholinoethyl)styryl)-1H-indazol-6-yl)spiro[cyclopropane-1,3′-indolin]-2′-one 2,2,2-trifluoroacetate] |  |
| < 100 | > 10000 | < 100 | < 100 | < 100 |  |  | COc1ccc2c(c1)[C@]1(C[C@H]1c1ccc3c(/C=C/c4ccc(CN5CCOCC5)c(F)c4)n[nH]c3c1)C(=O)N2 [Example A199, (1R,2S)-(E)-2-(3-(3-fluoro-4-(morpholinomethyl)styryl)-1H-indazol-6-yl)-S-methoxyspiro[cyclopropane-1,3′-indolin]-2′-one 2,2,2-trifluoroacetate] |  |
| > 10000 | 1000 to 10000 | < 100 | < 100 | < 100 |  |  | O=C1Nc2ccccc2[C@]12C[C@H]2c1ccc2c(/C=C/c3ccc(CN4CCOCC4)c(F)c3)n[nH]c2c1 [Example A200, (1R,2S)-(E)-2-(3-(3-fluoro-4-(morpholinomethyl)styryl)-1H-indazol-6-yl)spiro[cyclopropane-1,3′-indolin]-2′-one 2,2,2-trifluoroacetate] |  |
|  |  | < 100 | < 100 | < 100 | < 100 | 1000 to 10000 | COc1ccc2c(c1)[C@]1(C[C@H]1c1ccc3c(/C=C/c4ccc(CN5[C@H](C)CCC[C@@H]5C)cc4)n[nH]c3c1)C(=O)N2 [Example A203, (1R,2S)-(E)-2-(3-(4-((cis-2,6-dimethylpiperidin-1-yl)methyl)styryl)-1H-indazol-6-yl)-5′-methoxyspiro[cyclopropane-1,3′-indolin]-2′-one 2,2,2-trifluoroacetate] |  |
